The list shows a part of the results.
T1: UNK ZnF1-6 (called full-length) (human, UniProt Q9C0B0 30-357)
T1 sequence: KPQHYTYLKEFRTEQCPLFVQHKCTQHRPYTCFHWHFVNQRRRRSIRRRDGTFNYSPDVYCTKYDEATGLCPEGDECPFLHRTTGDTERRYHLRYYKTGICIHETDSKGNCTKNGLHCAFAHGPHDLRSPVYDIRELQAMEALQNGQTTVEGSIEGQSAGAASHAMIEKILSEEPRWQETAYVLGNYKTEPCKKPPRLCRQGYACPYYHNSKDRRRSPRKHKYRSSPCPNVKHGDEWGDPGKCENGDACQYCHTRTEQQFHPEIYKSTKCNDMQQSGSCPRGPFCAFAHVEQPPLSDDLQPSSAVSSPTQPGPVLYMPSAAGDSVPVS

B1: chr19:12699786:12699848:-|3pUTR|ENSG00000105576|msi1_unk|FALSE|overlapping (ssRNA)
RNA: GGGAGUUCUACAGUCCGACGAUCCCUGCUCCAUCCAUCCCUCCUGGGCGCCAGACCCUCCAUCCAAGCCCUGUGUCUUUCCAUAGUCAGGGUCAGGCCCUGCAUCUAUUCCAAGGGGCACUCAGUACACAUUCCAUAAAUUAGCAACAGAGGAUUGAGCAUCA
B2: ENSG00000198589:be:win_951|CDS|ENSG00000198589|bound_else_gene|NA|bound_elsewhere_windowed (ssRNA)
RNA: GGGAGUUCUACAGUCCGACGAUCAUGUUAUGUGAAUGGUGAGCUGGCUUCCUAUGGAGAGAUAACAUGGUUUGUCAACACUAGCGAUACCUUUGACAAAUGUUUCCUGGGCUCAUCAGAAACAGCAGAUGCUAAUAGAGUAUUCAACAGAGGAUUGAGCAUCA
B3: chr8:76864132:76864233:+|CDS|ENSG00000091656|msi1|total|mutant (ssRNA)
RNA: GGGAGUUCUACAGUCCGACGAUCUCAAGCUUGCACAAAGAGAAAACAAUCAAACAAGCAAUGAGAAAUGCCAAAGAGCAUGUCCGAUUAUUACCUCACUCAGUCUGCUCCCCUAAUCCUAACACCACAUCUACCUCGCAGUCUCAACAGAGGAUUGAGCAUCA
B4: chr3:154334942:154337698:-|three_prime_utr|ENSG00000174948|control|control|control (ssRNA)
RNA: GGGAGUUCUACAGUCCGACGAUCAACUGUGAAACUAACACCUUUGUUAUGAGACUGAUUUCCUUUUAUUUGUUGGCUUACAUUAGUUUUACUGAUUUAAUAGUUAAUUUUUUUGUGGGAACAACUGGAACUAGUGUAAACACUCAACAGAGGAUUGAGCAUCA
B5: chrX:65740646:65740790:+|3pUTR|ENSG00000147065|msi1|FALSE|unique (ssRNA)
RNA: GGGAGUUCUACAGUCCGACGAUCGGCCAUUCUAUUGUGGCAAGGCUGAGUAGAAGAUCCUACCCCAAUUCCUUGUAGGAGUAUAGGCCGGUCUAAAGUGAGCUCUAUGGGCAGAUCUACCCCUUACUUAUUAUUCCAGAUCUGCAACAGAGGAUUGAGCAUCA
B6: chr18:2804133:2804242:+|3pUTR|ENSG00000101596|unk|total|mutant (ssRNA)
RNA: GGGAGUUCUACAGUCCGACGAUCGGUUAAAGAGAAAUGACUUUUCCGGAACCCGACUUGAACGUAUAAUUAAUAUGUGGAACCCGUUUGCUUUUAUAAUUCAUUGUAUCAAGAAGGAGUCAUGUUUUAAAUCCAAGGCAUUGACAACAGAGGAUUGAGCAUCA
B7: chr19:51964856:51966214:-|CDS|ENSG00000256683|control|control|control (ssRNA)
RNA: GGGAGUUCUACAGUCCGACGAUCGCCUUCUGUGGCCCCUCAGACAUCAUUAAACAUCAGCGGCCUCCUCGCAAACAGGAACGUAGUCCUUGUGGGACAGCCAGUGGUCAGAUGUGCAGCCUCAGGAGAUAACAGAGGAUUUGCCAACAGAGGAUUGAGCAUCA
B8: chr7:77355212:77355430:-|CDS|ENSG00000186088|control|control|control (ssRNA)
RNA: GGGAGUUCUACAGUCCGACGAUCGCUCUAUAGAGCACUGCUCAGCCAGUCGUCUUUAUUACAGCUUCUGCAGAACACUUGCUUAGACUGUGAGAAGAUGGCUGCGUUGCACUGCGCGCUCUACUGCGGUCAAGGUGCGCAGUUCAACAGAGGAUUGAGCAUCA
B9: chr13:42886387:42888493:-|three_prime_utr|ENSG00000133106|control|control|control (ssRNA)
RNA: GGGAGUUCUACAGUCCGACGAUCCAUAUUUAAUCUCUACUGCCAGGGAAAUGCUACAUUAUUUUUCUAAUUGGAAGUAUAAUUAGAGUGAUGUUGGUAGGGUAGAAAAAGAGGGAGUCACUUGAUGCUUUCAGGUUAAUCAGACAACAGAGGAUUGAGCAUCA
B10: chr7:5606511:5606625:+|3pUTR|ENSG00000075618|msi1_unk|total|mutant (ssRNA)
RNA: GGGAGUUCUACAGUCCGACGAUCGGGUGUCUUGGUCUUUUAUUUUUUGUAAGUGUCAUUUGUAUAACUCUAAACGCCCAUGACCGCCGCUUCAAACUGGAAACCGCGAAAUAAAAUAACUCAGUCUGCAGCCCCAGGCCGGCCCAACAGAGGAUUGAGCAUCA
B11: chr22:41245667:41245769:-|3pUTR|ENSG00000100401|msi1|FALSE|unique (ssRNA)
RNA: GGGAGUUCUACAGUCCGACGAUCCAAUGUCCGAGCUGCAUCUGGACGCUGCUCUUAAAGGACCUCCUGGGGCAGGGGAGCGGUAGGGUCUGGACUGGGCAGAUGCUGUAUGACCUCCCUGAGCACCCGUGACUGCCCCAUGCUCAACAGAGGAUUGAGCAUCA
B12: chr11:77702383:77702481:-|5pUTR_CDS|ENSG00000048649|msi1_unk|FALSE|overlapping (ssRNA)
RNA: GGGAGUUCUACAGUCCGACGAUCAUUUUUAGAGGAACAGAAAGAAAGUGAAAAGAUGAAAAGUGAGGAGCAGCCUAUGGAUUUAGAAAACCGUUCUACAGCCAAUGUUCUAGAAGAGACUACUGUGAAAAAAGAAAAAGAAGACAACAGAGGAUUGAGCAUCA
B13: ENSG00000124766:be:win_2651|3pUTR|ENSG00000124766|bound_else_gene|NA|bound_elsewhere_windowed (ssRNA)
RNA: GGGAGUUCUACAGUCCGACGAUCAAAUUAUCACCAGCUUUUUUUCAUUCUUAACUCUUUAAAGGAUUCAAACGCAACUCAAAUCUGUGCUGGACUUUAAAAAAACAAUUCAGGACCAAAUUUUUUCUCAGUGUGUGUGUUUAUCAACAGAGGAUUGAGCAUCA
B14: chr10:62092816:62092917:+|CDS|ENSG00000150347|msi1|total|mutant (ssRNA)
RNA: GGGAGUUCUACAGUCCGACGAUCUUUUACAUCACCGACAAAUUCUCAGCAGCUGUACAGACACUUGGCUGCGGCUACACCUGCCGGAAGUUCAUAUGGGGACCUUUUGCAUAACAGCAUUUACCCUUCCGCUGCUAUAAAUCCCAACAGAGGAUUGAGCAUCA
B15: chr13:108210595:108210700:-|CDS|ENSG00000174405|unk|total|mutant (ssRNA)
RNA: GGGAGUUCUACAGUCCGACGAUCUCAGCACUUGAGCAAAAGUGGCUUAUACGGAUGAUCAUAAAGGAUUUAAAGCUUGGUGUCCGUCAGCAAACUAUCUUUUCUGUUUUUCAUAAUGAUGCUGCUGAGUUGCAUAAUGUCACUCAACAGAGGAUUGAGCAUCA
B16: ENSG00000124766:be:win_2201|3pUTR|ENSG00000124766|bound_else_gene|NA|bound_elsewhere_windowed (ssRNA)
RNA: GGGAGUUCUACAGUCCGACGAUCGCGGGAGCUAGGGGCGGGGGCGGAGGAGGACACGAACUGGAAGGGGGUUCACGGUCAAACUGAAAUGGAUUUGCACGUUGGGGAGCUGGCGGCGGCGGCUGCUGGGCCUCCGCCUUCUUUCAACAGAGGAUUGAGCAUCA
B17: chr6:112122013:112122201:-|CDS|ENSG00000112769|control|control|control (ssRNA)
RNA: GGGAGUUCUACAGUCCGACGAUCCCCAGAGCGGAAUACUCCAAGAAACUCUCAUUGCCACCUUUCCAACAGCCCUAGAGCAAUAGAGCACGCCUAUCAAUAUGGAGGAACAGCCAACAGCCGCCAAGAGUUUGAACACUUAAACAACAGAGGAUUGAGCAUCA
B18: chrX:42777473:42778079:-|CDS|ENSG00000102055|control|control|control (ssRNA)
RNA: GGGAGUUCUACAGUCCGACGAUCCGGCAGUUCGAAAUGAGAAGAAGGCUUCACUACAACGAAGAAUUGAACAUCAAAUUAGCUAGACAAUUAAUGUGGAAAGAGCUACAAAGUGAAGAUAAUGAAAACGAAGAAACGCCACAACAACAGAGGAUUGAGCAUCA
B19: chr17:64039079:64045293:-|three_prime_utr|ENSG00000178607|control|control|control (ssRNA)
RNA: GGGAGUUCUACAGUCCGACGAUCUUUCUUGGGUGUGUCCUCUGUGGUUUGGUUACACUGAUGUGUGUUUCAUUUUUGUUCCCUAGAGUGACAGGUGAGUGAUGGUGUCGUGCUCUAGGUGGUCAUUUCUGACCUGGGUGUGAUCAACAGAGGAUUGAGCAUCA
B20: ENSG00000070961:be:win_4551|3pUTR|ENSG00000070961|bound_else_gene|NA|bound_elsewhere_windowed (ssRNA)
RNA: GGGAGUUCUACAGUCCGACGAUCAAUGAAAGAUGCUUGAAAUGCUUUUGUUAUUUCAGGCAAAUCAAAUUAAAUCAGACUAUCAAACUACAAGAGAACCUUAGUCUUUUUUGUUUUUGUCUAAACAUGUUAGUUUAGUGAUGUCAACAGAGGAUUGAGCAUCA
B21: ENSG00000136451:be:win_301|CDS|ENSG00000136451|bound_else_gene|NA|bound_elsewhere_windowed (ssRNA)
RNA: GGGAGUUCUACAGUCCGACGAUCUUGGUGUCCCGGCCAAAGAAAACCCCCACCACGGUGGUUCCCCUUAUCUCUACCAUCGCUGGGGACAGCAGCCGAACUUCGUUGGUCUCGACCAUUGCAGGCAUCUUGUCAACAGUCACUCAACAGAGGAUUGAGCAUCA
B22: chr5:80438700:80438808:+|CDS|ENSG00000039319|unk|FALSE|unique (ssRNA)
RNA: GGGAGUUCUACAGUCCGACGAUCAGAUACAAUAGAAAGUGAACCCAGCACAGCAGAUACCGUUGUUCCAAUCACUUGUGCUAUAGAUUCUACAGCUGAUCCACAGGUUAGCUUCAACUCUAAUUACAUUGAUAUAGAAAGUAACAACAGAGGAUUGAGCAUCA

target: T1, UNK ZnF1-6 (called full-length); assay: nsRBNS (natural sequence RNA bind-n-seq); RBNS binding buffer (assumed for nsRBNS): 25 mM Tris pH 7.5, 150 mM KCl, 3 mM MgCl2, 0.01% Triton X-100, 500 ug/ml BSA, 20 U/ml SUPERase-In, 4 C; UNK is unkempt and MSI1 is Musashi-1; names of the RNAs are library labels; protein concentration not given here; high values mean tight binding

Row | Binder | binding signal
1 | B1 | 1.1 enrichment R
2 | B2 | 0.819 enrichment R
3 | B3 | 0.565 enrichment R
4 | B4 | 1.63 enrichment R
5 | B5 | 0.668 enrichment R
6 | B6 | 0.568 enrichment R
7 | B7 | 0.849 enrichment R
8 | B8 | 0.334 enrichment R
9 | B9 | 0.481 enrichment R
10 | B10 | 0.606 enrichment R
11 | B11 | 0.451 enrichment R
12 | B12 | 0.701 enrichment R
13 | B13 | 1.2 enrichment R
14 | B14 | 0.511 enrichment R
15 | B15 | 0.258 enrichment R
16 | B16 | 0.949 enrichment R
17 | B17 | 0.566 enrichment R
18 | B18 | 1.23 enrichment R
19 | B19 | 0.612 enrichment R
20 | B20 | 1.08 enrichment R
21 | B21 | 0.598 enrichment R
22 | B22 | 0.559 enrichment R

— publication PMC12136788
